Lines with a small IC50 respond at low doses; fits outside the tested doses are given as limits. The AUC spans the tested range (256-fold, ending at the top dose) of the same fit; values near 1 show little effect. For part of these data: A top dose marked as inferred is not printed in the source and was worked back from the curve model.
Experiments:
Assay in all cases: Viability of human cancer cell lines after 72 h of drug (GDSC screen)
SGC0946 = compound: CC(C)N(CCCNC(=O)Nc1ccc(C(C)(C)C)cc1)C[C@H]1O[C@@H](n2cc(Br)c3c(N)ncnc32)[C@H](O)[C@@H]1O [SGC0946]; settings: top dose 0.5 µM; top dose inferred
Protocol: (§1)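 Human cancer cell lines in 384-well plates, medium with 10% serum, drug for 72 h over a 256-fold dose range (nine 2-fold or five 4-fold steps up to the top dose). Adherent lines were fixed and stained with the nucleic acid dye Syto60, suspension lines read with resazurin; signal relative to control wells, capped at 0 and 100%. One two-parameter sigmoid per drug and line, fitted in a mixed model over all curves with the slope shared within a line.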

Bryostatin 1 = compound: CCC/C=C/C=C/C(=O)O[C@H]1/C(=C/C(=O)OC)C[C@H]2C[C@H]([C@@H](C)O)OC(=O)C[C@H](O)C[C@@H]3C[C@H](OC(C)=O)C(C)(C)[C@](O)(C[C@@H]4C/C(=C/C(=O)OC)C[C@H](/C=C/C(C)(C)[C@]1(O)O2)O4)O3 [Bryostatin 1]; settings: top dose 0.008 µM; top dose inferred
Protocol: as §1

GW-2580 = compound: COc1ccc(COc2ccc(Cc3cnc(N)nc3N)cc2OC)cc1 [GW-2580]; settings: top dose 20 µM; top dose inferred
Protocol: as §1

VX-680 = compound: Cc1cc(Nc2cc(N3CCN(C)CC3)nc(Sc3ccc(NC(=O)C4CC4)cc3)n2)n[nH]1 [VX-680]; settings: top dose 2 µM
Protocol: as §1

Lenalidomide = compound: Nc1cccc2c1CN(C1CCC(=O)NC1=O)C2=O [Lenalidomide]; settings: top dose 5 µM; top dose inferred
Protocol: as §1

| Cell Line | AUC (SGC0946) | IC50 (SGC0946) | AUC (Bryostatin 1) | IC50 (Bryostatin 1) | AUC (GW-2580) | IC50 (GW-2580) | AUC (VX-680) | IC50 (VX-680) | AUC (Lenalidomide) | IC50 (Lenalidomide) |
| --- | --- | --- | --- | --- | --- | --- | --- | --- | --- | --- |
| NCI-H1836 (small cell lung carcinoma, suspension) | 0.986 | > 500 nM | 0.988 | > 8 nM | 0.843 | 16400 nM | 0.958 | > 2000 nM | 0.988 | > 5000 nM |
| CL-11 (large intestine, adherent) | 0.976 | > 500 nM | 0.987 | > 8 nM | 0.976 | > 20000 nM | 0.966 | > 2000 nM | 0.984 | > 5000 nM |
| SW954 (urogenital system, adherent) | 0.983 | > 500 nM | 0.954 | > 8 nM | 0.979 | > 20000 nM | 0.48 | 110 nM | 0.982 | > 5000 nM |
| NCI-H716 (large intestine, suspension) | 0.978 | > 500 nM | 0.981 | > 8 nM | 0.982 | > 20000 nM | 0.982 | > 2000 nM | 0.861 | > 5000 nM |
| UACC-257 (melanoma, adherent) | 0.98 | > 500 nM | 0.967 | > 8 nM | 0.956 | > 20000 nM | 0.888 | > 2000 nM | 0.981 | > 5000 nM |
| MOLP-8 (myeloma, suspension) | 0.975 | > 500 nM | 0.953 | > 8 nM | 0.979 | > 20000 nM | 0.927 | > 2000 nM | 0.965 | > 5000 nM |
| LB2518-MEL (melanoma, adherent) | 0.983 | > 500 nM | 0.975 | > 8 nM | 0.986 | > 20000 nM | 0.949 | > 2000 nM | 0.987 | > 5000 nM |
| NCI-H1770 (non-small cell lung carcinoma, suspension) | 0.992 | > 500 nM | 0.984 | > 8 nM | 0.99 | > 20000 nM | 0.959 | > 2000 nM | 0.991 | > 5000 nM |
| KS-1 (glioma, adherent) | 0.97 | > 500 nM | 0.968 | > 8 nM | 0.951 | > 20000 nM | 0.512 | 136 nM | 0.961 | > 5000 nM |
| LS-123 (large intestine, adherent) | 0.98 | > 500 nM | 0.975 | > 8 nM | 0.972 | > 20000 nM | 0.91 | > 2000 nM | 0.961 | > 5000 nM |
| OCI-M1 (acute myeloid leukaemia, suspension) | 0.995 | > 500 nM | 0.994 | > 8 nM | 0.99 | > 20000 nM | 0.9 | 1480 nM | 0.994 | > 5000 nM |
| A3-KAW (B-cell lymphoma, suspension) | 0.992 | > 500 nM | 0.987 | > 8 nM | 0.992 | > 20000 nM | 0.943 | > 2000 nM | 0.992 | > 5000 nM |
| KLE (endometrium, adherent) | 0.975 | > 500 nM | 0.977 | > 8 nM | 0.974 | > 20000 nM | 0.93 | > 2000 nM | 0.977 | > 5000 nM |
| C2BBe1 (large intestine, adherent) | 0.982 | > 500 nM | 0.984 | > 8 nM | 0.984 | > 20000 nM | 0.981 | > 2000 nM | 0.98 | > 5000 nM |
| KNS-42 (glioma, adherent) | 0.969 | > 500 nM | 0.971 | > 8 nM | 0.983 | > 20000 nM | 0.943 | > 2000 nM | 0.984 | > 5000 nM |
| AMO-1 (haematopoietic neoplasm, suspension) | 0.981 | > 500 nM | 0.986 | > 8 nM | 0.945 | > 20000 nM | 0.915 | > 2000 nM | 0.984 | > 5000 nM |
| NCI-H226 (lung squamous cell carcinoma, adherent) | 0.986 | > 500 nM | 0.983 | > 8 nM | 0.981 | > 20000 nM | 0.982 | > 2000 nM | 0.985 | > 5000 nM |
| PL-21 (acute myeloid leukaemia, suspension) | 0.98 | > 500 nM | 0.97 | > 8 nM | 0.972 | > 20000 nM | 0.918 | > 2000 nM | 0.966 | > 5000 nM |
| D-283MED (medulloblastoma, adherent) | 0.99 | > 500 nM | 0.991 | > 8 nM | 0.988 | > 20000 nM | 0.99 | > 2000 nM | 0.972 | > 5000 nM |
| NCI-H446 (small cell lung carcinoma, semi-adherent) | 0.984 | > 500 nM | 0.982 | > 8 nM | 0.977 | > 20000 nM | 0.887 | > 2000 nM | 0.985 | > 5000 nM |

| Cell Line | AUC (SGC0946) | IC50 (SGC0946) | AUC (Bryostatin 1) | IC50 (Bryostatin 1) | AUC (GW-2580) | IC50 (GW-2580) | AUC (VX-680) | IC50 (VX-680) | AUC (Lenalidomide) | IC50 (Lenalidomide) |
| --- | --- | --- | --- | --- | --- | --- | --- | --- | --- | --- |
| MC-CAR (haematopoietic neoplasm, suspension) | 0.986 | > 500 nM | 0.982 | > 8 nM | 0.982 | > 20000 nM | 0.897 | > 2000 nM | 0.989 | > 5000 nM |
| WIL2-NS (lymphoid neoplasm, suspension) | 0.992 | > 500 nM | 0.979 | > 8 nM | 0.988 | > 20000 nM | 0.911 | 1920 nM | 0.975 | > 5000 nM |
| Mo-T (hairy cell leukaemia, suspension) | 0.979 | > 500 nM | 0.978 | > 8 nM | 0.968 | > 20000 nM | 0.988 | > 2000 nM | 0.953 | > 5000 nM |
| NTERA-2 cl.D1 (testis, adherent) | 0.984 | > 500 nM | 0.968 | > 8 nM | 0.985 | > 20000 nM | 0.237 | 21.8 nM | 0.985 | > 5000 nM |
| LB831-BLC (bladder, adherent) | 0.985 | > 500 nM | 0.935 | > 8 nM | 0.985 | > 20000 nM | 0.959 | > 2000 nM | 0.987 | > 5000 nM |
| NCI-H1694 (small cell lung carcinoma, suspension) | 0.987 | > 500 nM | 0.988 | > 8 nM | 0.891 | > 20000 nM | 0.976 | > 2000 nM | 0.983 | > 5000 nM |
| L-1236 (Hodgkin lymphoma, suspension) | 0.992 | > 500 nM | 0.986 | > 8 nM | 0.919 | > 20000 nM | 0.99 | > 2000 nM | 0.992 | > 5000 nM |
| LB2241-RCC (kidney, adherent) | 0.966 | > 500 nM | 0.981 | > 8 nM | 0.983 | > 20000 nM | 0.879 | > 2000 nM | 0.981 | > 5000 nM |
| ML-2 (acute myeloid leukaemia, suspension) | 0.989 | > 500 nM | 0.936 | > 8 nM | 0.99 | > 20000 nM | 0.721 | 487 nM | 0.972 | > 5000 nM |
| RPMI-6666 (Hodgkin lymphoma, suspension) | 0.974 | > 500 nM | 0.976 | > 8 nM | 0.963 | > 20000 nM | 0.795 | 1150 nM | 0.975 | > 5000 nM |
| KM12 (large intestine, adherent) | 0.783 | 229 nM | 0.979 | > 8 nM | 0.819 | 12700 nM | 0.59 | 225 nM | 0.985 | > 5000 nM |
| EW-3 (Ewing sarcoma, adherent) | 0.971 | > 500 nM | 0.98 | > 8 nM | 0.984 | > 20000 nM | 0.96 | > 2000 nM | 0.978 | > 5000 nM |
| TE-11 (oesophagus, adherent) | 0.989 | > 500 nM | 0.874 | 6.64 nM | 0.989 | > 20000 nM | 0.482 | 112 nM | 0.973 | > 5000 nM |
| SNU-C2B (large intestine, adherent) | 0.978 | > 500 nM | 0.921 | > 8 nM | 0.973 | > 20000 nM | 0.93 | > 2000 nM | 0.98 | > 5000 nM |
| IST-SL2 (small cell lung carcinoma, suspension) | 0.987 | > 500 nM | 0.987 | > 8 nM | 0.977 | > 20000 nM | 0.718 | 513 nM | 0.989 | > 5000 nM |
| COR-L279 (small cell lung carcinoma, suspension) | 0.989 | > 500 nM | 0.99 | > 8 nM | 0.921 | > 20000 nM | 0.888 | 1840 nM | 0.99 | > 5000 nM |
| NCI-H2135 (non-small cell lung carcinoma, adherent) | 0.99 | > 500 nM | 0.991 | > 8 nM | 0.99 | > 20000 nM | 0.98 | > 2000 nM | 0.989 | > 5000 nM |
| IST-SL1 (small cell lung carcinoma, semi-adherent) | 0.984 | > 500 nM | 0.982 | > 8 nM | 0.986 | > 20000 nM | 0.79 | 923 nM | 0.978 | > 5000 nM |
| COLO-320-HSR (large intestine, suspension) | 0.99 | > 500 nM | 0.989 | > 8 nM | 0.989 | > 20000 nM | 0.957 | > 2000 nM | 0.988 | > 5000 nM |

From the supplement of paper PMC4967469
